Data: PubChem BioAssay AID1508649 (National Center for Advancing Translational Sciences (NCATS), 2021)
Among all 43,000 compounds or so, about 830 (1.9%) were called active. Inconclusive means that the source gave no clear call. Such entries were picked first, then a sample of the others. Rule for the calls: active = clear falling dose curves in both reporters; inconclusive = both reporters move, but less clearly or upward; inactive = either reporter flat; the % is the NLuc reporter signal. Potencies of inconclusive entries are left out as doubtful fits.
% is set by controls: 0 for no effect and ±100 for the full control effect; potency is the fitted concentration of half-maximal effect; tags give direction and shape of the fitted curve.

Assay: Cell-based coincidence reporter assay to measure PMP22 gene transcription in S16 Pmp22-F2sN cells - Primary screen
Details: S16 Pmp22-F2sN Schwann cells (luciferase reporters placed in the Pmp22 gene), FLuc/NLuc coincidence luminescence, 24 h; measured here: NLuc reporter readout, at 57.5 µM (top of the series); activity change, negative = inhibition: at the top concentration
Summary of the method: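 qHTS, 1536-well. Cells seeded, compounds added by pin tool, 24 h 37C. Nano-Glo reagent 1 (lysis/FLuc), 10 min RT, read; Stop&Glo, 10 min RT, read NLuc.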
With `CCOc1ccc(CCNC(=O)C2CCN(C(=O)N3CC(CC)Oc4ccc(C)cc43)CC2)cc1` (stereo unspecified) the Potency was inconclusive [phenotype inactive, single point].
For `COc1ccc(C2c3cccn3CCN2S(=O)(=O)c2ccccc2[N+](=O)[O-])cc1OC` (stereo unspecified), the Potency was inconclusive [phenotype inactive, single point].
In the case of `COc1ccccc1CNC(=O)Cn1c(=O)oc2cc(S(=O)(=O)N3CCC(C)CC3)ccc21`, the Potency was active: 13.3 µM.
For `CCc1cnc2c(c1SCC(=O)Nc1ccc(Cl)cc1)c(=O)n(C)c(=O)n2C`, the Potency was inconclusive [phenotype inactive, partial curve, poor fit].
With `COc1ccc(NC(=O)N2CCc3c(sc4c3CCCC4)C2c2ccc(F)cc2)cc1` (stereo unspecified) the Potency was active: 15.2 µM.
In the case of `CCOc1ccc(Sc2cc(C(=O)NCCc3ccc(OC)c(OC)c3)c3ccccc3n2)cc1`, the Potency was inconclusive [phenotype inactive, partial curve].
With `CCCCN1CC(c2nc3ccccc3n2CCCCOc2c(C)cccc2C)CC1=O` (stereo unspecified) the Potency was inconclusive [phenotype inactive, partial curve].
With `Cc1ccc(N2CCN(C(=O)c3nn(C)c4c3CS(=O)(=O)c3ccccc3-4)CC2C)cc1` (stereo unspecified) the Potency was inconclusive [phenotype inactive, single point].
For `CC1CCN(C(=O)c2ccc(NC(=O)c3nsc4ccccc34)cc2)CC1`, the “activity change, negative = inhibition” value was inactive: -4.41%.
With `CCOc1ccccc1N1CC(c2nc3ccccc3n2CCCCOc2ccccc2)CC1=O` (stereo unspecified) the Potency was inconclusive [phenotype inactive, partial curve, poor fit].
For `Cc1ccc(CNc2c(C)c(C)nc3nncn23)cc1`, the Potency was inconclusive [phenotype inactive, partial curve, poor fit].
With `CCOc1ccc(CNC(=O)c2cccc(Nc3nc4ccccc4n4nnnc34)c2)cc1OC` the Potency was inconclusive [phenotype inactive, partial curve, poor fit].
For `O=C(COC(=O)c1cc(-c2cccs2)nc2ccccc12)c1ccc(Cl)cc1`, the “activity change, negative = inhibition” value was inactive: 0.528%.
In the case of `CCCCN(C)c1nnc(NC(=O)Nc2cccc(C(C)=O)c2)s1`, the Potency was inconclusive [phenotype inactive, single point].
With `Cc1ccc(NC(=O)CCc2nnc3n(CC(C)C)c(=O)c4ccccc4n23)cc1C` the Potency was inconclusive [phenotype inactive, single point].
In the case of `CCCCNC(=O)C(CC)Sc1nnc(-c2cccc(F)c2)c(-c2cccc(F)c2)n1` (stereo unspecified), the Potency was inconclusive [phenotype inactive, partial curve, poor fit].
